In paper PMC7819943, “Rice protein-binding microarrays: a tool to detect cis-acting elements near promoter regions in rice”:
The other results are listed elsewhere or left out.

The sequences below were run against T1, OsWOX13 (Oryza sativa, UniProt Q5QMM3 1-267) (assay: protein-binding microarray (RPBM); PBS, 2% BSA, 51.3 ng/ul salmon testes DNA, 50 uM zinc acetate, 200 nM TF, 25 C, 1 h; high values mean tight binding). Settings: protein: recombinant; tags: N-terminal polyhistidine and DsRed monomer fusion (pET32a); label: CyDye5-dUTP incorporated in the synthesized complementary strand; 3' TTTTT single-stranded linker to array surface; dsDNA, one strand shown.
T1 sequence: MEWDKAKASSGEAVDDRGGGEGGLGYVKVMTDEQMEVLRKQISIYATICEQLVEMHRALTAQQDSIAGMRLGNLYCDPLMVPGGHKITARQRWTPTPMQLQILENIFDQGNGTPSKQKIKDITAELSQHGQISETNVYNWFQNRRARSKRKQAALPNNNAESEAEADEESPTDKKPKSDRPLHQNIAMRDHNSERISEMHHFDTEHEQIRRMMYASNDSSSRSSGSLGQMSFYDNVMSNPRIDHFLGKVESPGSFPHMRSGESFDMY
How it was run: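 Polyhistidine-tagged DsRed fusions of transcription factors, joined at the N-terminus, were expressed in E. coli BL21-CodonPlus and isolated on Ni–NTA. They were incubated at 200 nM for 1 h at 25 °C on a custom Agilent array, double-stranded and BSA-blocked, in PBS with 2% BSA, salmon testes DNA and 50 µM zinc acetate. The binding signal is per-feature fluorescence intensity (arbitrary units) read on an Axon 4000B scanner after washing.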
With “AACCACTAATTATCGTATCATACGTCTTTATCGTATGCATCGGAGTCACCTAGTGCAG” the binding signal was 27500 fluorescence intensity (a.u.). With “GGAAGATTACCCTGTTTACCACTCACTGTACGATGATTATCGGAGTCACCTAGTGCAG” the binding signal was 4430 fluorescence intensity (a.u.). With “AGCGCTAGATTGGCCATCGACCACATCACCAACAACTCTCCGGAGTCACCTAGTGCAG” the binding signal was 13600 fluorescence intensity (a.u.). In the case of “TTTTGATTGCACCTTGCTTCTCGTATACACCCTCACCTATCGGAGTCACCTAGTGCAG”, the binding signal is reported as 22200 fluorescence intensity (a.u.). For “ACTGAAATTAATATTAGGTGCAAGTAATTCCATTCTCGACCGGAGTCACCTAGTGCAG”, the binding signal was 6650 fluorescence intensity (a.u.). With “ATACCGTTGATTTTCCGTCTTTTCAAGCATGTGTTACGGGCGGAGTCACCTAGTGCAG” the binding signal was 6990 fluorescence intensity (a.u.). For “AAATTTATGTAATTATAATTTATTTTATTGTGACTTGATTCGGAGTCACCTAGTGCAG”, the binding signal was 15700 fluorescence intensity (a.u.). With “TCTCCTTCCAATCAAAATCTCCACTGCCAAAGCTATCTGTCGGAGTCACCTAGTGCAG” the binding signal was 8190 fluorescence intensity (a.u.). For “CAAATTGATCCAGGAAGCCACGGGACGGCACGGATCTTTGCGGAGTCACCTAGTGCAG”, the binding signal was 5080 fluorescence intensity (a.u.). “GATTAATTCAATCCTATAAATTATATCCCAATTTATAATTCGGAGTCACCTAGTGCAG” was tested, and the binding signal was 11600 fluorescence intensity (a.u.). “AGGAGATTGTTAAGTGGCCATCCCTTTCTTTCTAATTCCTCGGAGTCACCTAGTGCAG” was tested, and the binding signal was 3460 fluorescence intensity (a.u.). “GAGCTAATTAGGCCATATATAAATTATTCATCGAAGGGTTCGGAGTCACCTAGTGCAG” was tested, and the binding signal was 42900 fluorescence intensity (a.u.). For “TAATCTAAATCAACTCATTGATTTTGCAAATGTGAGTTGACGGAGTCACCTAGTGCAG”, the binding signal was 13300 fluorescence intensity (a.u.). For “ATGCATGGAAATTAATTAATCTAGCTCGTTGTCGACGTCACGGAGTCACCTAGTGCAG”, the binding signal was 7480 fluorescence intensity (a.u.). For “TAAGATATCAAAATTTATGATAATTTTATCATCTCTAAGACGGAGTCACCTAGTGCAG”, the binding signal was 3550 fluorescence intensity (a.u.). “CCTGTGGGCATAAAAGCACCCGGCACCAGCGTCCGCTCGACGGAGTCACCTAGTGCAG” was tested, and the binding signal was 6240 fluorescence intensity (a.u.). For “CCAGCCCGTACTAATTAGGAGTACCATGAGAGGTACCGTACGGAGTCACCTAGTGCAG”, the binding signal was 3370 fluorescence intensity (a.u.). With “TCCTTGATTTCTACTCTGGTTCAGATTATATAGTTTCTCTCGGAGTCACCTAGTGCAG” the binding signal was 16400 fluorescence intensity (a.u.). For “AGTTGATTTGTTCTTATAAAACTGAATAATTATAACATAGCGGAGTCACCTAGTGCAG”, the binding signal was 17700 fluorescence intensity (a.u.). In the case of “TTCAGCCTGTCATCGTCAATTCGTCATCAGTTCATCGCTCCGGAGTCACCTAGTGCAG”, the binding signal is reported as 6130 fluorescence intensity (a.u.). With “TTTAGTATATAATAGATAGATAGATAGAAGATTTGTACTACGGAGTCACCTAGTGCAG” the binding signal was 4500 fluorescence intensity (a.u.). With “GCATTAATGCATTATTAATCAGTGATTCATTTAACCCCATCGGAGTCACCTAGTGCAG” the binding signal was 12500 fluorescence intensity (a.u.). “CATGATTTATAAATTATAAGCCTTGTGACTTGTGAGACGCCGGAGTCACCTAGTGCAG” was tested, and the binding signal was 51900 fluorescence intensity (a.u.). In the case of “TACACTTCGGTCATCATTTATAATTATAAATGTGTATTAACGGAGTCACCTAGTGCAG”, the binding signal is reported as 9110 fluorescence intensity (a.u.). In the case of “TACGGATAGTGATTGGGACGGAGGTGGTAACTCGTTTTACCGGAGTCACCTAGTGCAG”, the binding signal is reported as 14300 fluorescence intensity (a.u.). For “ATCTAATCAACTTCTTGTAGTTGTTAGGCATTATGCGCGGCGGAGTCACCTAGTGCAG”, the binding signal was 4120 fluorescence intensity (a.u.). In the case of “ATGGTTAACTGCTCTGATCTAAACTACTTGTTACGTGATGCGGAGTCACCTAGTGCAG”, the binding signal is reported as 7350 fluorescence intensity (a.u.). In the case of “TAGCAGATTAATCAAACTGAAACCCTCACTCCACAGCATTCGGAGTCACCTAGTGCAG”, the binding signal is reported as 9560 fluorescence intensity (a.u.). “GAAATTAGTCCAATAATTCAGTTTAATATTTACCCGGTTACGGAGTCACCTAGTGCAG” was tested, and the binding signal was 8590 fluorescence intensity (a.u.). “AGGATTGAATGAGTTTTCAGGGTACACAGGGAATTTACTCCGGAGTCACCTAGTGCAG” was tested, and the binding signal was 5390 fluorescence intensity (a.u.). For “ATATATTTTGAGATTGACGAAATCACAATAAACACCTCATCGGAGTCACCTAGTGCAG”, the binding signal was 13900 fluorescence intensity (a.u.). With “TTTGACTGCCGCTGACCTGTGGGCCCCACAACCACCCCATCGGAGTCACCTAGTGCAG” the binding signal was 19800 fluorescence intensity (a.u.). “ATCAATAATTAAATATACAAGTACCACTTAATGATCATGTCGGAGTCACCTAGTGCAG” was tested, and the binding signal was 17700 fluorescence intensity (a.u.). In the case of “ACTTTTCAGTCACATCGTACTAATTTCAACCCAAATTTCTCGGAGTCACCTAGTGCAG”, the binding signal is reported as 4600 fluorescence intensity (a.u.). In the case of “GTTTCATTTTAATTGACGCTTTGGACAATGACATGCTCTACGGAGTCACCTAGTGCAG”, the binding signal is reported as 15800 fluorescence intensity (a.u.). For “GAAATCAAATTACACCGATTTCAATAGTTCGGGGTCGAGACGGAGTCACCTAGTGCAG”, the binding signal was 3520 fluorescence intensity (a.u.). “AACTCATAAATTTGATATGTGATTGTTGATTGTAGACCTCCGGAGTCACCTAGTGCAG” was tested, and the binding signal was 24700 fluorescence intensity (a.u.). With “ATAAAACTGAATATAATATAAATATATGTATTGTTCAGGACGGAGTCACCTAGTGCAG” the binding signal was 4480 fluorescence intensity (a.u.). For “CTGATTTGTTTCAACTGGGCTGTAGTGGACCTGATACCTGCGGAGTCACCTAGTGCAG”, the binding signal was 12200 fluorescence intensity (a.u.). In the case of “ATAGTAAATTTTACCAATGACATCGTTGAATACATTTGCACGGAGTCACCTAGTGCAG”, the binding signal is reported as 7330 fluorescence intensity (a.u.). For “CTAATAATTTGTATATATGTACCGTATGAGTAGTAGTATTCGGAGTCACCTAGTGCAG”, the binding signal was 27000 fluorescence intensity (a.u.). “CGCTTCAATTAGCATGTACTGTTGGGAGATGCACACGTTTCGGAGTCACCTAGTGCAG” was tested, and the binding signal was 8670 fluorescence intensity (a.u.). For “GAGATAAATGGGCCTAAATGAGGCCGTGCCATACAATGGTCGGAGTCACCTAGTGCAG”, the binding signal was 5440 fluorescence intensity (a.u.). For “CGAAACGTCTCCAATTAATCTCTCTCATCAGGTGACACCGCGGAGTCACCTAGTGCAG”, the binding signal was 3780 fluorescence intensity (a.u.). For “AGTGATTATAATATTGTTCACAAATTTACAAACCTCTCATCGGAGTCACCTAGTGCAG”, the binding signal was 36700 fluorescence intensity (a.u.). With “GTGATGATTTTCCATTAGGATTTAGGAATCGTGCGCCGACCGGAGTCACCTAGTGCAG” the binding signal was 21600 fluorescence intensity (a.u.). For “GCTGACTGGATAAAATCTGATAAGCGTGAAGATGACCTTTCGGAGTCACCTAGTGCAG”, the binding signal was 21400 fluorescence intensity (a.u.). For “ACGAAACTTGATTTGTGTTTGGAACCTTGGGTTCTCAACCCGGAGTCACCTAGTGCAG”, the binding signal was 22700 fluorescence intensity (a.u.). With “GCTAATTAACTGTGATTGCAAGAAGGAAAACCATAGAAGGCGGAGTCACCTAGTGCAG” the binding signal was 53800 fluorescence intensity (a.u.). With “ATGGGATTGATTTCAATCAATGATTAACTCAAAACTGTGTCGGAGTCACCTAGTGCAG” the binding signal was 48300 fluorescence intensity (a.u.). With “CTCTTATATGGCAGGTTTGATTGCCGCGACGACGAGAGACCGGAGTCACCTAGTGCAG” the binding signal was 4150 fluorescence intensity (a.u.). “TTGATGATGAAATAATGAATGATATTTGACAAGGAGCTGACGGAGTCACCTAGTGCAG” was tested, and the binding signal was 18800 fluorescence intensity (a.u.). “AGAGCAAATCCCTGTCTCCTGCAATTGAAAATGAAATAATCGGAGTCACCTAGTGCAG” was tested, and the binding signal was 10700 fluorescence intensity (a.u.). In the case of “TCAAACATAACAAATTTTGTCACTAAACTACCTATACTATCGGAGTCACCTAGTGCAG”, the binding signal is reported as 6460 fluorescence intensity (a.u.).
